Test results reported in publication PMC4336329 (PLoS ONE, 2015).
Out of some 310,000 compounds screened, about 14,000 (4.5%) showed an effect of 50% or more. The effect is printed as a negative number. The list shows a part of the results.

Target: human ether-à-go-go-related gene (hERG) potassium channel (human, UniProt Q12809)
Test: primary screen, population patch clamp on CHO cells stably expressing hERG
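Also: peak tail current of the secondary pulse compared with the same well before compound.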

human ether-à-go-go-related gene (hERG) potassium channel, sequence (Q12809 whole entry, looked up): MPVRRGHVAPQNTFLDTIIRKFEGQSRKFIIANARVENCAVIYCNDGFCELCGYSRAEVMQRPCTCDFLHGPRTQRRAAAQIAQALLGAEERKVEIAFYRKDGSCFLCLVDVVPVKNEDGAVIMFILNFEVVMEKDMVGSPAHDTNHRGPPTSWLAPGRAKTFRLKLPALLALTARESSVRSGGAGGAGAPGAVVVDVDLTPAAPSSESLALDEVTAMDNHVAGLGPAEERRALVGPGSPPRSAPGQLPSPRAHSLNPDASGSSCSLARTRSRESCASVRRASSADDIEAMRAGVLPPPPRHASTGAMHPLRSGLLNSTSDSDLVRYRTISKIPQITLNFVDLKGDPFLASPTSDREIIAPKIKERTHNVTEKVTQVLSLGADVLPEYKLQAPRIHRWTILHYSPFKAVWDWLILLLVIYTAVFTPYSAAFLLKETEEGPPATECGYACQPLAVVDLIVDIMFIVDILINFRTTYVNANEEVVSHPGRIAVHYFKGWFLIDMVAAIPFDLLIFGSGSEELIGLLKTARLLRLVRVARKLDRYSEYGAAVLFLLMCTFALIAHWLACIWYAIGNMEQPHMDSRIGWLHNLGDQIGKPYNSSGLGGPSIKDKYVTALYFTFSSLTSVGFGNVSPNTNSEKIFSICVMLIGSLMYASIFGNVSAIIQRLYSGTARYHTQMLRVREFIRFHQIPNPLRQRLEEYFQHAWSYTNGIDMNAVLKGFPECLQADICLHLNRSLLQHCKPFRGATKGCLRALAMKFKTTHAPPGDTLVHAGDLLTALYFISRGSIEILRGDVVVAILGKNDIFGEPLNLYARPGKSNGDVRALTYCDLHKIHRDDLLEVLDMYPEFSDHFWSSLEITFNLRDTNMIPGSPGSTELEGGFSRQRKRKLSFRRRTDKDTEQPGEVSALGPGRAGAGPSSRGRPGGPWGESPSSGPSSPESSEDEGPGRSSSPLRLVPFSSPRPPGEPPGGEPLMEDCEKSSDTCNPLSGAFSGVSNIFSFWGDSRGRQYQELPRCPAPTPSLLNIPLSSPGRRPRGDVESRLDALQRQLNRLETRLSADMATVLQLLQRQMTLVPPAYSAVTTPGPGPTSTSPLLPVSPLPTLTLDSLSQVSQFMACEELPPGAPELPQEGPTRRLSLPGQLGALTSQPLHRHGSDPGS

SMILES	hERG current change (%, negative = inhibition) at 10uM [%]
CCOC(=O)N1CCC(n2c(=S)[nH]c3ccccc3c2=O)CC1	3.38
Cc1cccc(C(=O)NNC(=O)c2ccc(F)cc2)c1	10.9
CCOc1cccc(-c2c(C(=O)N/N=C/c3sccc3C)nnn2-c2nonc2N)c1	20.1
CCCOc1ccc(-c2c(=O)n(OCc3ccc([N+](=O)[O-])cc3)c3ccccc3[n+]2[O-])cc1	2.68
CCOC(=O)c1cnc(SCC(C)C)nc1N	-21
CCCNc1ccc(S(=O)(=O)N(CC)CC)cn1	8.07
CCN(c1ccc(C(O)(C(=O)OC)C(F)(F)F)cc1)S(=O)(=O)c1ccccc1 (centres unmarked)	-24.4
O=C1CC(SCCc2nc3ccccc3[nH]2)C(=O)N1c1ccc(F)c(Cl)c1 (centres unmarked)	-20
CCn1c(CCC(=O)Nc2nc3c(s2)CCCC3)nc2cc(S(=O)(=O)N(C)C)ccc21	-20.4
COc1ccc(S(=O)(=O)Nc2ccc(Cl)cn2)cc1	-8.53
Br.O=C(Nc1ccc(F)cc1)C1=CC(=O)N2CCN=C2S1	8.85
COc1ccc(Cl)cc1C(=O)NCc1cn(C)nc1C	12.7
CCCn1c(CNC(=O)c2cccs2)nc2ccccc21	-9.94
CC(C)c1ccc(NC(=O)[C@@H]2CCC(=O)N2C2OC(=O)c3ccccc32)cc1 (some centres unmarked)	2.65
CC(=O)c1ccc(N2CCN(C(=O)Cn3c(=S)[nH]c4ncccc4c3=O)CC2)cc1	16.9
Cc1cccc(C)c1NC(=O)c1cccc(C(=O)Nc2c(C)cccc2C)n1	-24.2
O=C1C2(c3ccccc3)CN(CCO)CC1(c1ccccc1)CN(CCO)C2	-10.6
CCOC(=O)c1ccccc1NC(=O)CN(c1ccccc1OCC)S(C)(=O)=O	-23
CCOC(=O)N1CCN(C(=O)c2nn(-c3cc(OC)cc(OC)c3)c(=O)c3ccccc23)CC1	-1.03

SMILES	hERG current change (%, negative = inhibition) at 10uM [%]
COc1ccc(-c2nnc(NC(=O)CS(=O)(=O)c3ccc(F)cc3)o2)cc1	4.02
O=C1CCCc2c1cc(C(=O)NCc1ccco1)c(=O)n2-c1ccccc1	-10.3
CC(C)C(C(=O)Nc1ccc2c(c1)OCCO2)N1C(=O)c2ccccc2C1=O (centres unmarked)	-3.49
Cc1c(N2C(=O)CS/C2=N\N=C\c2ccccc2O)c(=O)n(-c2ccccc2)n1C	-4.5
Cc1cc(NC(=O)c2ccc(Cl)cc2)n(-c2ccccc2)n1	-1.41
O=C(Cn1cc(C(F)(F)F)ccc1=O)NCCc1ccc(Cl)cc1Cl	2.44
CCOC(=O)NC(=O)CSc1ccccn1	18.2
COc1ccc(OCC(=O)Nc2c(C)ccc3nsnc23)cc1	-10.9
COCc1nnc(NC(=O)c2sc3ccccc3c2Cl)s1	2.52
Oc1ccccc1C=NCCCCCCN=Cc1ccccc1O	9.95
COc1ccc(NC(=O)CSc2nnc3n2CCCCC3)cc1	8.17
O=S(=O)(O)c1cccc(N=Nc2c(O)ccc3ccccc23)c1	16.4
COc1ccc(S(=O)(=O)Nc2cc3c4c(c2)C(C)C(=O)N4CCC3)cc1OC (centres unmarked)	6.27
O=C(O)c1cccc(-n2c(/C=C/c3ccccc3)nc3ccccc3c2=O)c1	12.8
COc1cc(OC)cc(-c2oc3cccnc3c2C#CCCO)c1	11.5
CCc1cccc(NC(=O)c2ccc(CNc3c(N4CCCC4)c(=O)c3=O)cc2)c1	11.8
O=C(CSc1ncn[nH]1)Nc1ccc2c(c1)CCC2	-1.56
COc1ccc(C(=O)NC2CCN(C(=S)Nc3ccccc3C)CC2)cc1	12.7
CCN(CC)C(=O)c1[nH]cnc1C(=O)Nc1ccc(C)cc1	2.75

SMILES	hERG current change (%, negative = inhibition) at 10uM [%]
O=C(Nc1ccc(Cl)cc1)C(c1ccccc1)N(CCO)CCO (centres unmarked)	-12.5
Cn1nccc1C(=O)Nc1ccc(S(=O)(=O)N2CCCC2)cc1	10.5
CC(C(=O)NCC1CCCCC1)N1CCN(S(=O)(=O)/C=C/c2ccccc2)CC1 (centres unmarked)	-26.7
Cc1ccc(OCC(=O)Nc2cccc(S(=O)(=O)N3CCOCC3)c2)c([N+](=O)[O-])n1	-7.93
CCC1(c2ccccc2)NC(=O)N(CC(=O)NCc2ccncc2)C1=O (centres unmarked)	18.5
O=C(Nc1ccc(Cl)cn1)Nc1ccccc1Cl	6.16
CN(CC(=O)Nc1ccccc1Br)C(=O)c1cc([N+](=O)[O-])ccc1N1CCOCC1	-10.6
Cl.O=C(O)c1cccc(Nc2nc(C(F)(F)F)nc3ccccc23)c1	40.7
CCCC(=O)OCC[N+](C)(C)C.[Cl-]	6.5
Cc1c(Cl)cccc1NC(=O)c1ccc(OCC(=O)NCc2ccccc2)cc1	15.5
Cc1c(Nc2cc(N3CCCCCC3)c3nonc3c2[N+](=O)[O-])c(=O)n(-c2ccccc2)n1C	-31.1
Cc1cc(Nc2cccc(Cl)c2)c2ccccc2n1	-68.8
CC(NCc1cccc(OCc2ccccc2)c1)C(O)c1ccccc1.Cl (centres unmarked)	-50.9
CCOC(=O)Cc1nc2nc(C)cc(C)n2n1	3.67
Cc1ccc(OCC(O)CN2CCN(Cc3ccc4c(c3)OCO4)CC2)cc1C.Cl (centres unmarked)	-61.1
CC(C)(C)c1ccc(S(=O)(=O)NCC(=O)Nc2sc3c(c2C(N)=O)CCCC3)cc1	19.2
CC(NC(=O)c1ccc(Cn2cc([N+](=O)[O-])cn2)cc1)c1ccccc1 (centres unmarked)	-13.5
COc1ccc(Cl)cc1NC(=O)CN(C)C(=O)c1ccc(C)s1	-5.14
